Results reported in the supplement of paper PMC8728848.
This is one part of the list.

Columns and labels:
Test in all cases: glycan array binding signal (z-score within array); higher = stronger binding
Settings in all cases: glycan notation: IUPAC condensed, linker removed
[1] = target: Gal(b1-4)GlcNAc(b1-3)Gal(b1-4)GlcNAc(b1-6)[Gal(b1-3)]GalNAc
Procedure, shortened: (§1)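 The binding signal is a Z-score computed within each array and averaged over linkers. Arrays of the same protein sequence at different concentrations or buffers were also averaged together. Data originate from 3228 arrays in the Consortium for Functional Glycomics database, kept only where the protein sequence was available.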

[2] = target: Gal(b1-4)GlcNAc(b1-3)Gal(b1-4)[Fuc(a1-3)]GlcNAc(b1-3)Gal(b1-4)[Fuc(a1-3)]GlcNAc
Procedure, shortened: as §1

[3] = target: Gal(b1-4)GlcNAc(b1-3)GalNAc
Procedure, shortened: as §1

[4] = target: Gal(b1-4)GlcNAc(b1-3)[Fuc(a1-3)GlcNAc(b1-6)]Gal(b1-4)Glc
Procedure, shortened: as §1

[5] = target: Gal(b1-4)GlcNAc(b1-3)[Gal(b1-4)GlcNAc(b1-6)]Gal(b1-4)GlcNAc
Procedure, shortened: as §1

[6] = target: Gal(b1-4)GlcNAc(b1-3)[GlcNAc(b1-6)]Gal(b1-4)GlcNAc
Procedure, shortened: as §1

[7] = target: Gal(b1-4)GlcNAc(b1-6)Gal(b1-4)GlcNAc
Procedure, shortened: as §1

[8] = target: Gal(b1-4)GlcNAc(b1-6)GalNAc
Procedure, shortened: as §1

[9] = target: Gal(b1-4)GlcNAc(b1-6)[Gal(b1-3)]GalNAc
Procedure, shortened: as §1

[10] = target: Gal(b1-4)GlcNAc(b1-6)[Gal(b1-4)GlcNAc(b1-3)]GalNAc
Procedure, shortened: as §1

[11] = target: Gal(b1-4)GlcNAc6P
Procedure, shortened: as §1

[12] = target: Gal(b1-6)Gal
Procedure, shortened: as §1

[13] = target: Gal3S(b1-3)GalNAc
Procedure, shortened: as §1

[14] = target: Gal3S(b1-3)GlcNAc
Procedure, shortened: as §1

[15] = target: Gal3S(b1-3)[Fuc(a1-4)]GlcNAc
Procedure, shortened: as §1

[16] = target: Gal3S(b1-4)Glc
Procedure, shortened: as §1

[17] = target: Gal3S(b1-4)Glc6S
Procedure, shortened: as §1

[18] = target: Gal3S(b1-4)GlcNAc
Procedure, shortened: as §1

[19] = target: Gal3S(b1-4)[Fuc(a1-3)]Glc6S
Procedure, shortened: as §1

[20] = target: Gal3S(b1-4)[Fuc(a1-3)]GlcNAc
Procedure, shortened: as §1

[21] = target: Gal3S(b1-4)[Fuc(a1-3)]GlcNAc6S
Procedure, shortened: as §1

[22] = target: Gal3S4S(b1-4)GlcNAc
Procedure, shortened: as §1

[23] = target: Gal3S6S(b1-4)GlcNAc
Procedure, shortened: as §1

[24] = target: Gal3S6S(b1-4)GlcNAc6S
Procedure, shortened: as §1

[25] = target: Gal4S(b1-4)GlcNAc
Procedure, shortened: as §1

[26] = target: Gal4S6S(b1-4)GlcNAc
Procedure, shortened: as §1

[27] = target: Gal6P(b1-4)GlcNAc
Procedure, shortened: as §1

[28] = target: Gal6S(b1-3)GlcNAc
Procedure, shortened: as §1

[29] = target: Gal6S(b1-3)GlcNAc6S
Procedure, shortened: as §1

[30] = target: Gal6S(b1-4)Glc
Procedure, shortened: as §1

[31] = target: Gal6S(b1-4)Glc6S
Procedure, shortened: as §1

[32] = target: Gal6S(b1-4)GlcNAc
Procedure, shortened: as §1

[33] = target: Gal6S(b1-4)GlcNAc6S
Procedure, shortened: as §1

[34] = target: GalNAc(a1-3)Gal
Procedure, shortened: as §1

[35] = target: GalNAc(a1-3)GalNAc
Procedure, shortened: as §1

[36] = target: GalNAc(a1-3)GalNAc(b1-3)Gal(a1-4)Gal(b1-4)Glc
Procedure, shortened: as §1

[37] = target: GalNAc(a1-3)GalNAc(b1-3)Gal(a1-4)Gal(b1-4)GlcNAc
Procedure, shortened: as §1

[38] = target: GalNAc(b1-3)Gal
Procedure, shortened: as §1

[39] = target: GalNAc(b1-3)Gal(a1-4)Gal(b1-4)GlcNAc
Procedure, shortened: as §1

[40] = target: GalNAc(b1-3)Gal(a1-4)Gal(b1-4)GlcNAc(b1-3)Gal(b1-4)Glc
Procedure, shortened: as §1

[41] = target: GalNAc(b1-3)Gal(a1-6)Gal(b1-4)Glc
Procedure, shortened: as §1

[42] = target: GalNAc(b1-3)GalNAc
Procedure, shortened: as §1

[43] = target: GalNAc(b1-3)GlcNAc
Procedure, shortened: as §1

[44] = target: GalNAc(b1-4)Gal(b1-4)Glc
Procedure, shortened: as §1

[45] = target: GalNAc(b1-4)GlcNAc
Procedure, shortened: as §1

B1: EULS2 M4 (Oryza sativa) (protein)
chain: MVYCRANPNYAMTARNGAVVLAPANPKDEYQHWIKDMRWSTSIKDEEGYPAFALVNKATGQAIKHSLGQSHPVRLVPYNPEVMDESVLWTESRDVGNGFRCIRMVNNIYLNFDAFHGDKYHGGVRDGTDIVLWKWCEGDSLRWKIQPYYILEQKLISEEDLNSAVDHHHHHH
glycan array binding signal (z-score) [1]: -0.092
glycan array binding signal (z-score) [2]: -0.793
glycan array binding signal (z-score) [3]: -0.506
glycan array binding signal (z-score) [4]: 0.396
glycan array binding signal (z-score) [5]: -0.444
glycan array binding signal (z-score) [6]: -0.137
glycan array binding signal (z-score) [7]: 0.664
glycan array binding signal (z-score) [8]: -0.124
glycan array binding signal (z-score) [9]: -0.529
glycan array binding signal (z-score) [10]: -0.377
glycan array binding signal (z-score) [11]: -0.659
glycan array binding signal (z-score) [12]: -0.437
glycan array binding signal (z-score) [13]: -0.608
glycan array binding signal (z-score) [14]: -0.257
glycan array binding signal (z-score) [15]: -0.208
glycan array binding signal (z-score) [16]: 0.203
glycan array binding signal (z-score) [17]: 0.957
glycan array binding signal (z-score) [18]: -0.155
glycan array binding signal (z-score) [19]: -0.511
glycan array binding signal (z-score) [20]: 0.414
glycan array binding signal (z-score) [21]: 1.47
glycan array binding signal (z-score) [22]: -0.361
glycan array binding signal (z-score) [23]: -0.485
glycan array binding signal (z-score) [24]: 0.189
glycan array binding signal (z-score) [25]: -0.511
glycan array binding signal (z-score) [26]: -0.484
glycan array binding signal (z-score) [27]: -0.62
glycan array binding signal (z-score) [28]: -0.021
glycan array binding signal (z-score) [29]: 0.689
glycan array binding signal (z-score) [30]: -0.141
glycan array binding signal (z-score) [31]: -0.068
glycan array binding signal (z-score) [32]: -0.146
glycan array binding signal (z-score) [33]: -0.349
glycan array binding signal (z-score) [34]: 0.158
glycan array binding signal (z-score) [35]: -0.218
glycan array binding signal (z-score) [36]: -0.3
glycan array binding signal (z-score) [37]: -0.51
glycan array binding signal (z-score) [38]: -0.102
glycan array binding signal (z-score) [39]: 1.04
glycan array binding signal (z-score) [40]: -0.527
glycan array binding signal (z-score) [41]: 0.215
glycan array binding signal (z-score) [42]: -0.465
glycan array binding signal (z-score) [43]: -0.464
glycan array binding signal (z-score) [44]: -0.262
glycan array binding signal (z-score) [45]: -0.133
